{"source": "PubChem BioAssay AID686979", "about": "(National Center for Advancing Translational Sciences (NCATS), 2013)", "note": "Out of some 420,000 compounds screened, about 50,000 (12%) were called active. The inconclusive results got no clear call from the source; some entries with a clear call stand among them for comparison. Calls come from the whole dose curve; as a rule, active = well fitted inhibition curve with a large enough effect; inconclusive = small, poorly fitted or top-dose-only effect; inactive = flat fitted curve, though single readings scatter. Potencies of inconclusive entries are left out as doubtful fits. Potency is the fitted concentration of half-maximal effect; tags give direction and shape of the fitted curve."}
{"assay": "qHTS for Inhibitors of human tyrosyl-DNA phosphodiesterase 1 (TDP1): qHTS in cells in presence of CPT; note: nearly all actives have a fitted effect of over 55% in size", "conditions": "chicken DT40 Tdp1-/-;hTDP1 cells + 20 nM CPT, ATP luminescence, 48 h; series mostly up to 46.2 µM", "method_in_brief": "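Cell growth measured by CellTiter-Glo luminescence after a minimum 48 h, 37 C compound exposure with 20 nM CPT in Tdp1-knockout DT40 cells stably expressing hTDP1, seeded 400/well; qHTS titration format.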"}
{"smiles": "Cc1ccc2nc(NC(=O)/C=C/c3ccc4c(c3)OCO4)sc2c1", "Potency": "inconclusive [inhibitor, partial curve]"}
{"smiles": "O=C(CNC(=O)c1ccccc1)Sc1ccccc1", "Potency": "inconclusive [inhibitor, single point]"}
{"smiles": "NS(=O)(=O)c1ccc(-c2ccc(/C=N/NC(=O)c3ccccc3O)o2)cc1", "Potency": "inconclusive [inhibitor, single point]"}
{"smiles": "Cc1cc(C(=O)COC(=O)c2ccc(CO)cc2)c(C)n1CC1COc2ccccc2O1", "note": "(stereo unspecified)", "Potency": "active: 23.1 µM"}
{"smiles": "Cn1c(O)c(N=NC(=O)CNC(=O)c2cccnc2)c2ccccc21", "Potency": "inactive"}
{"smiles": "CCn1c(=O)sc2cc(NS(=O)(=O)c3ccc(C)cc3)ccc21", "Potency": "inconclusive [inhibitor, single point]"}
{"smiles": "CC(C)(C)OC(=O)N1CCC(c2c(C(=O)O)cnn2-c2ccc(Cl)cc2)CC1", "Potency": "inactive"}
{"smiles": "CCc1ccc2c(c1)NC(c1ccc(C)cc1)=NC(c1cccs1)=N2", "Potency": "inconclusive [inhibitor, single point]"}
{"smiles": "Cc1noc(/C=C/N(C)C)c1S(=O)(=O)NC1CCCCC1", "Potency": "inconclusive [inhibitor, single point]"}
{"smiles": "CC1=C(C(=O)OCCOc2ccccc2)C(c2ccsc2)NC(=O)N1C", "note": "(stereo unspecified)", "Potency": "inconclusive [inhibitor, single point]"}
{"smiles": "CCCOc1ccccc1C1CC(=O)NC(C)=C1C(=O)OCC(C)C", "note": "(stereo unspecified)", "Potency": "active: 20.6 µM"}
{"smiles": "CCOC(=O)c1ccccc1NC(=O)Cc1ccc(S(=O)(=O)N2CCCC2)s1", "Potency": "inconclusive [inhibitor, partial curve]"}
{"smiles": "COc1ccc(Cn2nc(-c3ccccc3)c(N3CCCCC3)cc2=O)cc1", "Potency": "inconclusive [inhibitor, single point]"}
{"smiles": "CCc1ccccc1N(C)C(=O)c1cn(-c2cccc(OC)c2)c(=O)c2ccccc12", "Potency": "active: 14.6 µM"}
{"smiles": "Cc1[nH]n(-c2ccccc2)c(=O)c1C=Nc1ccc2[nH]c(=O)[nH]c2c1", "Potency": "inactive"}
{"smiles": "Cc1nn(CC(=O)N(C)Cc2ccccc2)c(=O)c2cccn12", "Potency": "inactive"}
{"smiles": "Cc1n[nH]c(=O)c2c(NC(=O)CSc3nnnn3-c3ccc(O)cc3)oc(C)c12", "Potency": "inactive"}
{"smiles": "Cc1ccc(OCC(=O)c2cc(C)c(C)cc2C)c([N+](=O)[O-])n1", "Potency": "active: 3.66 µM"}
{"smiles": "CCOc1cc(CNCCc2ccc(S(N)(=O)=O)cc2)cc(Cl)c1OCc1ccccc1", "Potency": "active: 12.6 µM"}
{"smiles": "COc1ccc(C(CNC(=O)COc2ccccc2C)N2CCOCC2)cc1", "note": "(stereo unspecified)", "Potency": "active: 20.6 µM"}
{"smiles": "O=C(c1cccc(Br)c1)c1nc2ccccc2[nH]c1=O", "Potency": "inactive"}
{"smiles": "Cc1ccc(C(=O)NCCNc2ncc(C(F)(F)F)cc2Cl)cc1[N+](=O)[O-]", "Potency": "inconclusive [inhibitor, single point]"}
{"smiles": "O=C(NCCNc1ccc([N+](=O)[O-])cc1C(F)(F)F)c1ccccc1", "Potency": "inconclusive [inhibitor, single point]"}
{"smiles": "c1ccc(-n2ncc3c(NCC4CCCO4)ncnc32)cc1", "note": "(stereo unspecified)", "Potency": "inconclusive [inhibitor, single point]"}
{"smiles": "Nc1c2c(nc3ccccc13)N(c1ccccc1)CC2", "Potency": "active: 14.6 µM"}
{"smiles": "CCOc1ccccc1NC(=S)N1CCN(c2nc(-c3ccc(F)cc3)cs2)CC1", "Potency": "active: 20.6 µM"}
{"smiles": "COc1cc(/C=C/C(=O)OCC(=O)N2c3ccccc3CC2C)cc(OC)c1OC", "note": "(stereo unspecified)", "Potency": "inconclusive [inhibitor, single point]"}
{"smiles": "CC(C)c1ccccc1NC(=O)CNC(C)c1ccc(F)cc1", "note": "(stereo unspecified)", "Potency": "inactive"}
{"smiles": "O=C(CCc1nc2cccnc2n1-c1ccccc1)Nc1ccc(Cl)c(Cl)c1", "Potency": "inconclusive [inhibitor, single point]"}
{"smiles": "O=c1oc2cc(O)ccc2c2oc3cc(O)ccc3c12", "Potency": "inconclusive [inhibitor, single point]"}
{"smiles": "C[C@@H]1CN([C@@H](C)CO)S(=O)(=O)c2ccc(-c3cccc(C#N)c3)cc2O[C@@H]1CN(C)C(=O)c1ccc(F)cc1", "Potency": "inconclusive [inhibitor, single point]"}
{"smiles": "Cc1cc(S(=O)(=O)N2CCN(c3c(C)cccc3C)CC2)ccc1F", "Potency": "inactive"}
{"smiles": "COc1cc(NC(=O)CCc2nc3cccnc3n2Cc2cccs2)cc(OC)c1OC", "Potency": "active: 16.4 µM"}
{"smiles": "CC1(C(=O)NC2CCCCC2)Cc2ccccc2C(=O)N1Cc1ccccc1Cl", "note": "(stereo unspecified)", "Potency": "inconclusive [inhibitor, single point]"}
{"smiles": "O=C(CCCn1c(=S)[nH]c2cc3c(cc2c1=O)OCO3)NCCc1ccc(Cl)cc1", "Potency": "inactive"}
{"smiles": "CCOC(=O)C1=C(CNC(C)(C)CC(C)(C)C)NC(=O)NC1c1cccc([N+](=O)[O-])c1", "note": "(stereo unspecified)", "Potency": "inconclusive [inhibitor, single point]"}
{"smiles": "CCOc1cccc2cc(-c3cn4cc(C)ccc4n3)c(=O)oc12", "Potency": "inconclusive [inhibitor, single point]"}
{"smiles": "O=C1NCCN1C(=O)N(c1ccccc1)c1ccccc1", "Potency": "inactive"}
{"smiles": "CCOc1ccc(S(=O)(=O)N2CCCC(C(=O)NCc3ccncc3)C2)cc1C", "note": "(stereo unspecified)", "Potency": "inconclusive [inhibitor, single point]"}
{"smiles": "Cc1cccc(Oc2cc(N)cc([N+](=O)[O-])c2)c1", "Potency": "inconclusive [inhibitor, single point]"}
{"smiles": "C=CCN1C(c2cccc(C(F)(F)F)c2)=CS/C1=C(/C#N)c1nnc(N2CCOCC2)n1-c1ccccc1", "Potency": "active: 11.6 µM"}
{"smiles": "CC1C(=O)Nc2ccc(S(=O)(=O)N3CCN(c4cccc(Cl)c4)CC3)cc2NC1=O", "note": "(stereo unspecified)", "Potency": "active: 18.4 µM"}
{"smiles": "COc1ccc(Cl)cc1CC=NNC(=O)c1cccc(C)c1O", "Potency": "active: 13 µM"}
{"smiles": "Cc1noc(/C=C/c2cccs2)c1S(=O)(=O)N1CCC(C(=O)NCCCN2CCCC(C)C2)CC1", "note": "(stereo unspecified)", "Potency": "inconclusive [inhibitor, single point]"}
{"smiles": "CC(=O)c1ccc(N2C(=O)N(Cc3ccccc3C#N)c3ccccc3S2(=O)=O)cc1", "Potency": "active: 16.4 µM"}
{"smiles": "CN(C)c1ccc(C2C=C(c3ccccc3)Nc3nnnn32)cc1", "note": "(stereo unspecified)", "Potency": "inconclusive [inhibitor, single point]"}
